In all, about 310,000 compounds went through this assay and about 2,200 (0.71%) showed an effect of 50% or more. Effects have a minus sign here. The list shows a part of the results.

The test deals with human ether-à-go-go-related gene (hERG) potassium channel (human, UniProt Q12809). The test can be described thus: primary screen, population patch clamp on CHO cells stably expressing hERG.
Chain of human ether-à-go-go-related gene (hERG) potassium channel (Q12809 whole entry, looked up): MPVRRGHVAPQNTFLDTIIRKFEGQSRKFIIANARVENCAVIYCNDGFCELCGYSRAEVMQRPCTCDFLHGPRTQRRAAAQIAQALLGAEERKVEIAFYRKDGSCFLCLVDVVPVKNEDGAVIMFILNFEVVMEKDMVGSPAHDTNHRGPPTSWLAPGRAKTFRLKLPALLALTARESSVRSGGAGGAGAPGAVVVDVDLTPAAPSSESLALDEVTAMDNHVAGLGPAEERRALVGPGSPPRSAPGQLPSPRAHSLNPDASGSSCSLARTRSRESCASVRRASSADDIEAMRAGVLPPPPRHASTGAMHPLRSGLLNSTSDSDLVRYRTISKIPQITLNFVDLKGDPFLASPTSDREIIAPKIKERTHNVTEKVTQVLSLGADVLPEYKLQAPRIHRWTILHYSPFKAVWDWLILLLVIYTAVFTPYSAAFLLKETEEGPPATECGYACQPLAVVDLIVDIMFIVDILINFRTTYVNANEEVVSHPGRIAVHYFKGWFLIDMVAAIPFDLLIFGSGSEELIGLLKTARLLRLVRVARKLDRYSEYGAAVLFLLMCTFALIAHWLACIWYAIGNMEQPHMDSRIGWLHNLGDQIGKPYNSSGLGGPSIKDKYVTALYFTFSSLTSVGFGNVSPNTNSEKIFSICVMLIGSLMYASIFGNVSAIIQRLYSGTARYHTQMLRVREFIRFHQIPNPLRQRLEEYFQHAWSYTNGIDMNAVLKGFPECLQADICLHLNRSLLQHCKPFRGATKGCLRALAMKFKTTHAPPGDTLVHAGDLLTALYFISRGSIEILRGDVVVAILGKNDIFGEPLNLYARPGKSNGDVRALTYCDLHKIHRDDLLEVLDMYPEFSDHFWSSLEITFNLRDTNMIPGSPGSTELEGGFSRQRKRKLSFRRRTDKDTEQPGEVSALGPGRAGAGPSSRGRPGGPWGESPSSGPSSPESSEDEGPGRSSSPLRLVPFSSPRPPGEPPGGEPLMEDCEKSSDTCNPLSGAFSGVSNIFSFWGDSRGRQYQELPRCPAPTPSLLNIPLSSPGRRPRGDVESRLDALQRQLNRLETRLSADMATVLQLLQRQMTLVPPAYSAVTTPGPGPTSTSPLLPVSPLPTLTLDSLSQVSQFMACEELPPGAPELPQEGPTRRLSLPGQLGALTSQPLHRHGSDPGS
Regarding `Cn1cc(CN2CCC(CO)CC2)c(-c2ccc(Oc3ccccc3)cc2)n1`, the “hERG current change (%, negative = inhibition) at 1uM” value was -20.3%.

On to `CCCCCCCOc1ccc(OC(=O)c2cccnc2)cc1`, for which the “hERG current change (%, negative = inhibition) at 1uM” value is 9.35%.

`NC(=S)NCc1cccnc1`: the “hERG current change (%, negative = inhibition) at 1uM” value came to 12.8%.

`C(=N\c1ncnc2sccc12)/NOCc1ccccc1`: the “hERG current change (%, negative = inhibition) at 1uM” value was determined as 5.55%.

In the case of `COC(=O)c1ccc(CSc2nnnn2-c2ccc(C)cc2C)o1`, the “hERG current change (%, negative = inhibition) at 1uM” value came to 1.4%.

Turning to `Cc1cc(NC(=O)C2C3C(=O)N(Cc4ccc(Cl)cc4)C(C(=O)NC(C)(C)C)C34C=CC2(C)O4)no1` (stereo not drawn), the “hERG current change (%, negative = inhibition) at 1uM” value is 14.2%.

As for `O=C(CSc1ncnc2c1cnn2-c1ccccc1)NC1CCS(=O)(=O)C1` (stereo not drawn), the “hERG current change (%, negative = inhibition) at 1uM” value came to 3.51%.

In the case of `COc1ccc(CNC(=O)C2CC(c3ccc(OC)cc3)=NO2)cc1` (stereo not drawn), the “hERG current change (%, negative = inhibition) at 1uM” value was found to be 14.3%.

For `O=C(OCC(=O)c1ccccc1Br)c1ccccn1`, the “hERG current change (%, negative = inhibition) at 1uM” value was 8.25%.

In the case of `COc1ccc(OC)c(NC(=O)CN2CCc3ccccc3C2)c1`, the “hERG current change (%, negative = inhibition) at 1uM” value was 11.5%.

Regarding `O=C(c1ccc(Cl)c(S(=O)(=O)NCc2cccnc2)c1)N1CCCC1`, the “hERG current change (%, negative = inhibition) at 1uM” value came out at 10.1%.

With `O=C1NC(c2ccccc2)=C(c2nc3ccccc3s2)C(c2ccccc2)N1` (stereo not drawn), the “hERG current change (%, negative = inhibition) at 1uM” value is on record as -3.46%.

On to `CCO[C@H]1OC(C(=O)N2CCN(Cc3ccc4c(c3)OCO4)CC2)=C[C@@H](C(C)(C)C)[C@@H]1CCCO`, for which the “hERG current change (%, negative = inhibition) at 1uM” value is recorded as 8.11%.

Consider `CCOC(=O)N1CCN(C(=O)c2ccc(OC)cc2)CC1`, for which the “hERG current change (%, negative = inhibition) at 1uM” value is listed as 8.91%.

Regarding `Cc1ccc(-c2ccc(/C=C3\SC(N4CCOCC4)=NC3=O)o2)cc1`, the “hERG current change (%, negative = inhibition) at 1uM” value is -54.6%.

Regarding `C=CCn1c(Cc2ccc(OC)cc2)nnc1SCc1nc2ccccc2c(=O)[nH]1`, the “hERG current change (%, negative = inhibition) at 1uM” value stood at 4.92%.

On to `COc1ccc(-n2c(C)c(C(C)=O)c3cc(OCC(N)=O)ccc32)cc1`, for which the “hERG current change (%, negative = inhibition) at 1uM” value is 6.75%.

In the case of `O=c1ccccn1CCOc1ccccc1Cl`, the “hERG current change (%, negative = inhibition) at 1uM” value came out at 1.88%.

In the case of `CCC(=O)NC(=S)NNC(=O)COc1ccc(Br)cc1`, the “hERG current change (%, negative = inhibition) at 1uM” value is reported as -10.2%.

For `COc1ccc(-n2c(Cc3cccn3C)nnc2SCC(=O)Nc2cc(Cl)ccc2OC)cc1`, the “hERG current change (%, negative = inhibition) at 1uM” value is listed as -50.9%.

With `O=C(COc1ccc2ccccc2c1)N[C@@H](C(=O)O)c1ccc(O)cc1`, the “hERG current change (%, negative = inhibition) at 1uM” value came to 12%.

In the case of `Cc1ccc(NC(=O)CSCC(=O)OCc2cc(=O)oc3cc(O)ccc23)c(C)c1`, the “hERG current change (%, negative = inhibition) at 1uM” value is recorded as -9.3%.

Consider `Cc1cc(Br)ccc1N=C1C(=O)Nc2ccccc21`, for which the “hERG current change (%, negative = inhibition) at 1uM” value came to 14.2%.

Consider `Cc1cc(OC(C)C(=O)NC(Cc2c[nH]c3ccc(O)cc23)C(=O)O)c2c(C)cc(=O)oc2c1` (stereo not drawn), for which the “hERG current change (%, negative = inhibition) at 1uM” value was -0.679%.

Regarding `COc1ccc(-c2noc(C3CCCN(C(=O)CCc4ccccc4)C3)n2)cc1` (stereo not drawn), the “hERG current change (%, negative = inhibition) at 1uM” value is -9.88%.

Regarding `CC(C)CCn1c(SCC(=O)OCn2nnc3ccccc3c2=O)nc2ccccc2c1=O`, the “hERG current change (%, negative = inhibition) at 1uM” value is listed as 2.3%.

On to `Cc1c(C(=O)OCC(=O)Nc2ccc(C(=O)N(C)C)cc2)oc2ccccc12`, for which the “hERG current change (%, negative = inhibition) at 1uM” value is listed as 4.41%.

`CCOc1ccc(OCC)c(S(=O)(=O)n2ccnc2C)c1`: the “hERG current change (%, negative = inhibition) at 1uM” value came out at 8.83%.

Regarding `CCC1(C)Cc2ccccc2-c2[nH]c(=S)[nH]c(=O)c21` (stereo not drawn), the “hERG current change (%, negative = inhibition) at 1uM” value was found to be 15.9%.

With `COc1cccc(N2CCN(C(=O)c3ccc(N4C(=O)NC5CC4(C)Oc4ccccc45)cc3)CC2)c1` (stereo not drawn), the “hERG current change (%, negative = inhibition) at 1uM” value was 12.7%.

Consider `COc1ccccc1C(=O)Nc1ccc2c(c1)CCCN2C(=O)c1ccccc1`, for which the “hERG current change (%, negative = inhibition) at 1uM” value is 2.02%.

`Cc1cc(NC(=O)CSc2nnc(-c3ccccc3Cl)o2)no1`: the “hERG current change (%, negative = inhibition) at 1uM” value was 16.1%.

In the case of `Cc1ccc(-c2nc(C#N)c(NCc3cccc4c3OCO4)o2)cc1`, the “hERG current change (%, negative = inhibition) at 1uM” value is -4.65%.

For `Cc1[nH]n(-c2ccccc2)c(=O)c1C(=O)c1ccccc1`, the “hERG current change (%, negative = inhibition) at 1uM” value is on record as 12.7%.

For the molecule `COc1ccc(C(=O)C2CCCN(C(=O)c3ccc(OC)o3)C2)c(C)c1` (stereo not drawn), the “hERG current change (%, negative = inhibition) at 1uM” value is listed as -0.475%.

Regarding `Cc1cc2ccccc2c(=O)n1CC(=O)NCCC1=CCCCC1`, the “hERG current change (%, negative = inhibition) at 1uM” value turned out to be 9.27%.

With `CCOC(=O)c1c(NC(=O)C2CCCO2)sc(C(N)=O)c1C` (stereo not drawn), the “hERG current change (%, negative = inhibition) at 1uM” value is listed as 6.24%.

Take `Cc1nn(Cc2ccc(F)cc2)c(C)c1NC(=O)c1cccnc1Cl`: the “hERG current change (%, negative = inhibition) at 1uM” value was determined as 17.6%.

Consider `CC(C)(C)N(NC(=O)c1ccccc1)C(=O)c1ccccc1`, for which the “hERG current change (%, negative = inhibition) at 1uM” value is recorded as -4.16%.

With `O=C(CN1CCOCC1)Nc1ccccc1Cl`, the “hERG current change (%, negative = inhibition) at 1uM” value was 1.49%.

As for `CCCc1nc2ccccc2c(=O)n1/N=C/c1ccc(O)cc1`, the “hERG current change (%, negative = inhibition) at 1uM” value stood at 11.1%.

For the molecule `O=C(C1CCC(=O)N1C1CCCCC1)N1CCN(c2ccc(F)cc2)CC1` (stereo not drawn), the “hERG current change (%, negative = inhibition) at 1uM” value is 6.59%.

For `Nc1nc2ccccc2[nH]1`, the “hERG current change (%, negative = inhibition) at 1uM” value is on record as 15.5%.

Take `CCOc1cc(N2CCOCC2)c(OCC)cc1NC(=O)CN1CCCC(C)C1` (stereo not drawn): the “hERG current change (%, negative = inhibition) at 1uM” value is listed as -2.17%.

As to `O=C(C1=C(O)C(=O)N(c2nc3ccc(Cl)cc3s2)C1c1ccco1)c1ccco1` (stereo not drawn), the “hERG current change (%, negative = inhibition) at 1uM” value was -0.241%.

Consider `O=c1[nH]ncn2cccc12`, for which the “hERG current change (%, negative = inhibition) at 1uM” value is given as 12%.

With `COc1cccc(C(=O)C2CCCN(Cc3ccc4nsnc4c3)C2)c1` (stereo not drawn), the “hERG current change (%, negative = inhibition) at 1uM” value came out at 5.66%.

On to `O=C(COc1ccccc1Cl)Nc1cc(NC(=O)COc2ccccc2Cl)cc(C(=O)O)c1`, for which the “hERG current change (%, negative = inhibition) at 1uM” value worked out at 1.69%.

On to `Nc1nc2cc(S(=O)(=O)NC3=NCCCCC3)ccc2s1`, for which the “hERG current change (%, negative = inhibition) at 1uM” value stood at 10.1%.

For `COc1ccc(-n2c(COc3cccc(C)c3)n[nH]c2=S)cc1`, the “hERG current change (%, negative = inhibition) at 1uM” value is recorded as 16.8%.

Turning to `Cc1ccc2nc(C)c(CN3CCN(c4ccc([N+](=O)[O-])cc4Cl)CC3)n2c1`, the “hERG current change (%, negative = inhibition) at 1uM” value amounted to 0.853%.

Consider `Cc1cccc(N(CC(=O)NC(C)(C)C)C(=O)CNC(=O)c2cccs2)c1C`, for which the “hERG current change (%, negative = inhibition) at 1uM” value is reported as 7.7%.

On to `Nc1cc(=O)[nH]c(SCC(=O)c2ccc(O)cc2O)n1`, for which the “hERG current change (%, negative = inhibition) at 1uM” value turned out to be 9.82%.

On to `Cc1ccc(Cn2c(NC(=O)c3ccco3)nc3ccccc32)cc1`, for which the “hERG current change (%, negative = inhibition) at 1uM” value is reported as 15.4%.

Take `O=C(CNC(=O)c1ccccc1Br)N/N=C\c1cc([N+](=O)[O-])cc(Br)c1O`: the “hERG current change (%, negative = inhibition) at 1uM” value turned out to be 10.2%.

Turning to `CC(C)CN(C(=O)CN1CCN(c2ccc(F)cc2)CC1)c1c(N)n(CC(C)C)c(=O)[nH]c1=O`, the “hERG current change (%, negative = inhibition) at 1uM” value was 9.55%.

In the case of `CC(C)c1nc2cc(C(=O)N3CCN(c4cnccn4)CC3)ccc2o1`, the “hERG current change (%, negative = inhibition) at 1uM” value worked out at 6.86%.
